Assays:
[1] = test system: HUVEC; assay: Tube formation assay with HUVEC in collagen gel; assay type: cell-based, human; details: collagen I gel; E3 active even at 10 ng/ml (tested 1 ng/ml to 10 μg/ml); E3b-IgG1 tested 1 pg/ml to 10 ng/ml
Description: Human Umbilical vein endothelial cells (HUVEC) were obtained by treating fresh human umbilical cord veins with Trypsin-EDTA (1×) (Gibco/Invitrogen) for 20-25 minutes at 37° C. The cells were cultured in a T-25 flask coated with attachment factor (AF), (Cascade Biologics) in RPMI 1640 medium supplemented with 10% FCS, 0.4% BBE, 1% 1-glutamin, 1% penicillin/streptomycin. Primary cultures were detached with warm Trypsin-EDTA and used when confluent at the second or third passage. The cells were maintained in a proliferative state by culturing them in a split ratio 1:2 at an approximate density of the monolayer of about 60-80%. […]
After 2 passages HUVECs were seeded in their culture medium (40.10^3/50 μl/well of a 96-well plate) on a collagen gel (50 μl of collagen I 1.5 mg/ml) prepared by mixing 7.5 volumes of 2 mg/ml collagen (Collagen R; Serva, Heidelberg, Germany), 1 volume of 10×MEM, 1.5 volume of NaHCO3 (15.6 mg/ml) and ˜1 volume of NaOH to adjust the pH to 7.4. […] The total length of the tube network on the culture surface was quantified at ×40 magnification by the METAVUE™ Software (Universal Imaging Corporation). Results from triplicate wells were expressed as mean vessel area per field ±SEM (relative units). […]
Germlined E3 and its parental antibody were evaluated in the tube formation assay in a collagen type-I matrix. […]

[2] = test system: SW-480 (colorectal cancer) cells; assay: SW-480 colorectal cancer xenograft in nu/nu mice; assay type: in vivo, mouse; details: for Tumor Weight: average per group
Description: Mice (nu/nu) were implanted subcutaneously with 5×10^6 SW-480 (colorectal cancer) cells. After 12 days, when tumors reached approximately 100-200 mg, the mice were separated into 5 groups and treated with the following agents (or left untreated): • 1—Untreated • 2—Vehicle (PBS) • 3—Cisplatin (4 mg/kg/, IV, q2d×5 times) • 4—A2-SV (negative control antibody @ 10 mg/kg, IP, q2d×14 times) • 5—DX-2220 (anti-Tie-1 antibody @ 10 mg/kg, IP, q2d×14 times)
Throughout the study, the length (L) and width (W) of any tumors that developed were measured in millimeters using calibrated vernier calipers, where L is the longer of the two dimensions. When applicable, tumor weight (M) in milligrams was calculated by using the formula associated with a prolate ellipsoid: M=(L×W^2)/2. […] A2-SV is an isotype matched (IgG1) negative control antibody that binds strepavidin.

B1: DX-2220: full length, IgG1, germlined human anti-Tie1 antibody E3b; LC SEQ ID NO:700, HC SEQ ID NO:701 (antibody)
heavy: EVQLLESGGGLVQPGGSLRLSCAASGFTFSMYGMVWVRQAPGKGLEWVSVISPSGGNTGYADSVKGRFTISRDNSKNTLYLQMNSLRAEDTAVYYCARAPRGYSYGYYYWGQGTLVTVSS[left out - human IgG1 constant region]
light: DIQMTQSPSSLSASVGDRVTITCRASQGIGHYLAWYQQKPGKVPKLLIYTASTLQSGVPSRFSGSGSGTDFTLTISSLQPEDVATYYCQQFNSYPHTFGQGTRLEIKRTVAAPSVFIFPPSDEQLKSGTASVVCLLNNFYPREAKVQWKVDNALQSGNSQESVTEQDSKDSTYSLSSTLTLSKADYEKHKVYACEVTHQGLSSPVTKSFNRGEC
modifications: Antibody
tube formation by HUVECs [1]: inhibits tube formation | efficacy compared with cisplatin ([2]; DX-2220 10 mg/kg IP q2d×14, cisplatin 4 mg/kg IV q2d×5): as efficacious as the chemotherapeutic control | Tumor Weight ([2]; 5 days after cell injection (before treatment start at day 12)): 112 mg | Tumor Weight ([2]; 9 days after cell injection (before treatment start at day 12)): 137 mg | Tumor Weight ([2]; 12 days after cell injection (treatment start)): 139 mg | Tumor Weight ([2]; 15 days after cell injection): 145 mg | Tumor Weight ([2]; 19 days after cell injection): 186 mg | Tumor Weight ([2]; 22 days after cell injection): 224 mg | Tumor Weight ([2]; 26 days after cell injection): 292 mg | Tumor Weight ([2]; 28 days after cell injection): 328 mg

Source: patent US7871610B2, “Antibodies to Tie1 ectodomain” (Dyax Corp., priority 2003, dated 2011)
